Measured values reported in PubChem BioAssay AID1963963 (Molecular Pharmacology Branch, DTP, NCI, 2024).
Some entries of the source have several records that differ or are many. This list holds those alone. An entry can have further records. Values that stand side by side are repeats (runs, samples, wells, individuals or studies).

System: 958667-338-R-J2-PDC tumor spheroids viability
Test: Anticancer human tumor 958667-338-R-J2-PDC patient-derived colon adenocarcinoma cell line growth inhibition [PI3K]
Details: spheroids with HUVEC and MSC; for viability, T/C: stronger effect = lower value
From the text: Combinatorial screen of targeted agents with the PI3K inhibitors inavolisib, alpelisib, duvelisib, and copanlisib in multi-cell type tumor spheroids
A high-throughput screen of multi-cell type tumor spheroids was designed to identify active combinations of targeted small molecules and PI3K pathway inhibitors. Complex spheroids include a stromal component modeled by human endothelial cells (HUVEC) and fibroblasts modeled by human mesenchymal stem cells (MSCs). The concentration ranges selected for each drug and investigational agent were based upon clinically achievable concentrations if the clinical Cmax of the agent was known.
Compounds. The drugs and investigational agents: inavolisib (NSC800729), alpelisib (NSC765974), duvelisib (NSC772469), copanlisib (NSC816437), ipatasertib (NSC767898), afuresertib (NSC778305), talazoparib (NSC767125), sapanisertib (NSC764658), selumetinib (NSC741078), tovorafenib (DAY101, NSC766906), vemurafenib (NSC761431), ravoxertinib (NSC781343), sotorasib (NSC818433), MRTX1133 (NSC 836407), abemaciclib (NSC 768073), palbociclib (NSC758247), venetoclax (NSC 766270), SY5609 (NSC837396), enzalutamide (NSC755605), and darolutamide (NSC825331), were obtained from the National Cancer Institute (NCI) Developmental Therapeutics Program Chemical Repository. The FDA-approved anticancer drug set is available from the NCI Developmental Therapeutics Program. […] The stock solutions were prepared in dimethyl sulfoxide (DMSO, Sigma-Aldrich, St. Louis, MO, cat. D2650) at 800-fold the tested concentration and stored at -70 degrees C prior to their use. All drugs and investigational agents were tested over a range starting from a high concentration at or near the clinical Cmax and decreasing in half-log increments. If the clinical Cmax for an agent had not been determined, the highest concentration tested was 10 microM.
Cell Culture. All cells were maintained in an incubator at 37 degrees C and 5% CO2 with 95% humidity. The PDC lines were cultured according to standard operating procedures established by the NCI PDMR (https://pdmr.cancer.gov/sops/default.htm). All PDCs were thawed and cultured in Matrigel-coated flasks prepared with a working solution of 1X Ham's F-12 nutrient mix, without supplementation (Invitrogen, Waltham, MA, cat. 11765054), 100 U/mL penicillin-streptomycin (Invitrogen, cat. 15140122), and 2.5% Matrigel (Corning Inc., Corning, NY, cat. 354248) for the first three passages. The 354836-022-R-J1-PDC, 475296-252-R-J1-PDC, and 997726-040-R-J2-PDC lines were cultured in 6A media, which includes advanced DMEM/F-12 (Thermo Fisher Scientific, cat. 12634028), 10 mM HEPES (Thermo Fisher Scientific, cat. 15630080), 1X GlutaMAX supplement (Thermo Fisher Scientific, cat. 35050061), 0.1 mg/mL primocin (InvivoGen, San Diego, CA, cat. ant-pm-2), 10% defined fetal bovine serum, heat inactivated (HyClone Laboratories Inc., Logan, UT, cat. SH30070.03HI), 50% L-WRN conditioned media (ATCC, cat. CRL-3276), 1.25 mM N-Acetyl-L-cysteine (Sigma-Aldrich, cat. A9165), 10 mM nicotinamide (Sigma-Aldrich, cat. N0636), 1X B-27 supplement (Thermo Fisher Scientific, cat. 17504044), 1X N-2 supplement (Thermo Fisher Scientific, cat. 17502048), and 10 microM Y-27632 dihydrochloride (Tocris Bioscience, Bristol, United Kingdom, cat. 1254). The 624824-186-R-J2-PDC line was cultured in 6C/Colon 1B media, which includes all 6A media components plus 50 ng/mL human EGF recombinant protein (Thermo Fisher Scientific, cat. PHG0311). […]
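Also: spheroids exposed to compounds for seven days before readout.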

COc1c(OCCCN2CCOCC2)ccc2c3n(c(=NC(=O)c4cnc(N)nc4)nc12)CCN3
viability, T/C (compound alone 0.01 µM): 79.5, 90.8, 73.4, 89.4, 100, 86.5, 83.9, 95.3%

CC(=O)c1c(C)c2cnc(Nc3ccc(N4CCNCC4)cn3)nc2n(C2CCCC2)c1=O
viability, T/C (compound alone 0.001 µM): 79.8, 94, 89.4, 117%

CC(Nc1ncnc2nc[nH]c12)c1cc2cccc(Cl)c2c(=O)n1-c1ccccc1 (stereo unspecified)
viability, T/C (compound alone 0.0316 µM): 85.2, 94.8, 86.5, 109, 86.6, 82.5, 101, 81.6%
viability, T/C (compound alone 0.316 µM): 91.8, 105, 91.1, 113, 84.2, 103, 92.3, 84%
viability, T/C (compound alone 3.16 µM): 111, 91.8, 87.7, 84, 91.2, 93.2, 90.9, 102%

Cn1cnc2c(F)c(Nc3ccc(Br)cc3Cl)c(C(=O)NOCCO)cc21
viability, T/C (compound alone 0.03 µM): 74, 94.4, 68, 67.5%

Cc1nc(NC(=O)N2CCCC2C(N)=O)sc1-c1ccnc(C(C)(C)C(F)(F)F)c1 (stereo unspecified)
viability, T/C (compound alone 0.0316 µM): 92.7, 100, 101, 116, 104, 76.8, 83.8, 99.7%
viability, T/C (compound alone 0.1 µM): 84.8, 79.6, 99.9, 97.7, 103, 91.7, 77.8, 88.9%
viability, T/C (compound alone 0.316 µM): 90.8, 96.6, 95.3, 83.8, 108, 103, 75.9, 106%
viability, T/C (compound alone 1 µM): 93.2, 74.2, 82.5, 86.7, 84.9, 99.5, 75.7, 89.3%

Cn1ncnc1[C@H]1c2n[nH]c(=O)c3cc(F)cc(c23)N[C@@H]1c1ccc(F)cc1
viability, T/C (compound alone 0.01 µM): 102, 96, 108, 82.2%

CCCS(=O)(=O)Nc1ccc(F)c(C(=O)c2c[nH]c3ncc(-c4ccc(Cl)cc4)cc23)c1F
viability, T/C (compound alone 0.0316 µM): 95.3, 105, 111, 81.2%

Cn1ncc(Cl)c1-c1cc(C(=O)NC(CN)Cc2cccc(F)c2)sc1Cl (stereo unspecified)
IC50 (compound alone): 1.91, 4.89, 4.59, 5.87 µM

CC1(C)CCC(Nc2ncc(C(F)(F)F)c(-c3c[nH]c4c(P(C)(C)=O)c(C#N)ccc34)n2)CN1 (stereo unspecified)
viability, T/C (compound alone 0.1 µM): 112, 83.4, 90.8, 92%
viability, T/C (compound alone 0.316 µM): 89.5, 96.9, 68.9, 85.3%

CC1(C)CCC(CN2CCN(c3ccc(C(=O)NS(=O)(=O)c4ccc(NCC5CCOCC5)c([N+](=O)[O-])c4)c(Oc4cnc5[nH]ccc5c4)c3)CC2)=C(c2ccc(Cl)cc2)C1
viability, T/C (compound alone 0.0316 µM): 124, 96.4, 117, 120%
viability, T/C (compound alone 0.1 µM): 90.8, 76.9, 107, 94.1%
viability, T/C (compound alone 10 µM): 24.6, 62.6, 57.3, 27.3%

Cn1nccc1Nc1nccc(-c2ccn(C(CO)c3ccc(Cl)c(F)c3)c(=O)c2)n1 (stereo unspecified)
viability, T/C (compound alone 0.1 µM): 103, 119, 87.2, 82.4%
viability, T/C (compound alone 10 µM): 70.7, 86.3, 73.8, 50.1%

CC(Nc1ccc2c(c1)OCCn1cc(N3C(=O)OCC3C(F)F)nc1-2)C(N)=O (stereo unspecified)
viability, T/C (compound alone 0.00316 µM): 83.3, 99.4, 83.9, 102, 68.5, 113, 108%

C=CC(=O)N1CCN(c2nc(=O)n(-c3c(C)ccnc3C(C)C)c3nc(-c4c(O)cccc4F)c(F)cc23)C(C)C1 (stereo unspecified)
viability, T/C (compound alone 0.0316 µM): 107, 105, 130, 95.7%
viability, T/C (compound alone 10 µM): 106, 126, 99.2, 119%

C[C@@H](NC(=O)c1ncnc(N)c1Cl)c1ncc(C(=O)Nc2cc(C(F)(F)F)c(Cl)cn2)s1
viability, T/C (compound alone 1 µM): 96.4, 118, 81.6, 116%

CNC(=O)c1ccc(N2C(=S)N(c3ccc(C#N)c(C(F)(F)F)c3)C(=O)C2(C)C)cc1F
viability, T/C (compound alone 0.316 µM): 94.5, 122, 114, 104%

CC(C)n1nc(-c2ccc3oc(N)nc3c2)c2c(N)ncnc21
viability, T/C (compound alone 0.00316 µM): 99.8, 79.8, 105, 96.5%
